Assay results reported in the BET-seq Pho4 binding data (Le et al. 2018).
Some of the results follow. Values were computed here from the reads of four pooled replicates and scatter widely.

These sequences were tested against T1, Pho4 (S. cerevisiae) (UniProt P07270) (assay: relative binding free energy (BET-seq); higher = weaker binding). Details: reference: library average.
T1 sequence: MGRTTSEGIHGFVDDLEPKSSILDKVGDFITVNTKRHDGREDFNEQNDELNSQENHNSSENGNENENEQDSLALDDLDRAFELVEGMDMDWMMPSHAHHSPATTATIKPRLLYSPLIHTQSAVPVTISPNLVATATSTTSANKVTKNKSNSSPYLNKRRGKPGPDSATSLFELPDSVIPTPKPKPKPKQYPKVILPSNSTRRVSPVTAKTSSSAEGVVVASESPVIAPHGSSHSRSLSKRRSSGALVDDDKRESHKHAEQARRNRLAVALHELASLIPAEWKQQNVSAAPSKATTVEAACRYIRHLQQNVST

Row | Sequence | relative binding free energy [kcal/mol]
1 | TGTATCACGTGTCTGC | 0.19
2 | CGGGTCACGTGGGTTA | 0.03
3 | AGATCCACGTGTTATT | 0.14
4 | AGGTTCACGTGGCATG | 0.13
5 | TGTTGCACGTGGATGT | 0.03
6 | CCGTTCACGTGTTGGC | 0.42
7 | GATTCCACGTGCGGGG | 0.09
8 | GCGGCCACGTGGGAGT | -0.12
9 | TGTTTCACGTGAGTAT | 0.29
10 | AGTGACACGTGGTGCA | -0.13
11 | CAGCTCACGTGAGGGG | 0.28
12 | GTAAACACGTGTTCTG | 0.16
13 | TCGTGCACGTGAGGAG | 0.34
14 | AGGTACACGTGTGCTT | 0.04
15 | CTTATCACGTGGGTCT | 0.12
16 | GCGTTCACGTGGTAGA | 0.34
17 | ATTATCACGTGGAGTC | 0.13
18 | TAGGGCACGTGGTCGT | -0.2
19 | TGAGGCACGTGGGTAT | -0.19
20 | GTCGTCACGTGGTTTA | 0.06
21 | TGGATCACGTGGACGG | 0.39
22 | GGCTGCACGTGGGTGG | -0.05
23 | CGTAGCACGTGGAGGA | -0.13
24 | CAGTCCACGTGTGGTT | 0.07
25 | TTGTTCACGTGAACTT | 0.55

Row | Sequence | relative binding free energy [kcal/mol]
26 | AATCGCACGTGTGGTT | 0.11
27 | AGGTTCACGTGAGTGG | 0.38
28 | ATGCTCACGTGGCGGG | 0.1
29 | CAGCGCACGTGGGGGG | -0.21
30 | CGTGGCACGTGTGGGC | -0.09
31 | GTGAGCACGTGTTGTC | -0.15
32 | TGCTGCACGTGTGAGT | -0.01
33 | GGTGACACGTGGAATG | 0.04
34 | TTTAGCACGTGATTCT | 0.06
35 | CAGTGCACGTGATAGG | -0.07
36 | AGGGTCACGTGGCACT | 0.05
37 | AATGTCACGTGAGGCA | 0.27
38 | ATGGGCACGTGTATAG | -0.11
39 | TCGGTCACGTGCATGG | 0.09
40 | GTTAACACGTGGGCGG | -0.16
41 | GTAGTCACGTGACTGG | 0.33
42 | AAGGTCACGTGAGTAT | 0.25
43 | AGGGGCACGTGAGCGA | -0.05
44 | TTTTCCACGTGTTAGG | 0.17
45 | TGTGACACGTGACGGA | 0.09
46 | AAGCGCACGTGGGGGG | -0.19
47 | CGTGGCACGTGCTGTT | -0.21
48 | GAGCGCACGTGGGGCT | -0.23
49 | GTGGTCACGTGTTGAT | 0.12
50 | TGGGGCACGTGTACTG | -0.07

Row | Sequence | relative binding free energy [kcal/mol]
51 | TTAATCACGTGGGACT | -0.06
52 | CGGATCACGTGTTATT | 0.1
53 | TGATGCACGTGTATGC | 0.04
54 | GTCGGCACGTGAGGGC | 0.33
55 | AGGAGCACGTGGCCGG | -0.22
56 | AACGTCACGTGTGGAT | 0.06
57 | TCAGACACGTGGGGTG | -0.14
58 | CTTTGCACGTGTACGT | 0.03
59 | GTGCGCACGTGGGCGC | -0.03
60 | TGAGTCACGTGTAACG | 0.29
61 | TATTACACGTGAATGA | 0.36
62 | TAGAACACGTGGATTG | 0.03
63 | GGGAACACGTGGTAAT | 0.18
64 | TACTTCACGTGTGATG | 0.28
65 | CGGTCCACGTGTGTTG | -0.04
66 | TGGGGCACGTGCATTT | -0.14
67 | GTGTTCACGTGAGCTG | 0.41
68 | GTTATCACGTGAAGTT | 0.3
69 | TAGTTCACGTGAAGAG | 0.2
70 | TGTGACACGTGTAAAG | 0.04
71 | TATAGCACGTGAGGGT | 0.21
72 | GGATGCACGTGTGTGC | 0.08
73 | TAGGGCACGTGAGTCT | 0.1
74 | CTGGGCACGTGCGGTT | -0.04
75 | AGTCGCACGTGGGCGT | -0.15

Row | Sequence | relative binding free energy [kcal/mol]
76 | ATTTACACGTGATAGT | 0.17
77 | GGGGACACGTGAGTCA | 0.24
78 | GGGGGCACGTGGGTGC | -0.25
79 | CTATGCACGTGAAGGT | 0.11
80 | TGTTGCACGTGAGAAT | 0.22
81 | CTTTGCACGTGTCGTA | 0.18
82 | TGAATCACGTGTGAAT | 0.15
83 | TGTTTCACGTGTCACG | 0.23
84 | ATTCACACGTGTAATG | 0.18
85 | GATTCCACGTGGTTAT | 0.17
86 | GTATTCACGTGGTAAA | 0.13
87 | TGACACACGTGGTGTA | -0.17
88 | GTTGTCACGTGAGTCG | 0.34
89 | ATAACCACGTGTTGGG | 0
90 | GTAGTCACGTGTCATT | 0.14
91 | TTATTCACGTGCATTA | 0.32
92 | AGTGTCACGTGGGATA | -0.03
93 | TGTAACACGTGGAGGG | -0.1
94 | GGTAGCACGTGGCTGG | -0.02
95 | GGGCGCACGTGTATGG | 0.01
96 | TAAACCACGTGTGGGG | 0.05
97 | AATATCACGTGGGAGT | 0.09
98 | ATATGCACGTGTTAAT | 0.02
99 | TTGTTCACGTGGGGCC | 0.26
100 | TCATTCACGTGGATGT | 0.19

Row | Sequence | relative binding free energy [kcal/mol]
101 | GTATTCACGTGAGGTG | 0.36
102 | CAGTGCACGTGTATGA | 0.14
103 | AGTCTCACGTGCTAGG | 0.25
104 | CAATTCACGTGTGGTG | 0.27
105 | GGTAGCACGTGTAACG | 0.04
106 | ATAATCACGTGCGGTT | 0.21
107 | ATTGACACGTGTGAGA | 0.15
108 | CTTTTCACGTGGCGTT | 0.27
109 | GGTTACACGTGGTACT | 0.21
110 | TGTTTCACGTGCGGTT | 0.33
111 | TGAAGCACGTGGATTA | -0.07
112 | CGGGTCACGTGTCGGC | 0.16
113 | TTGGTCACGTGAGCTT | 0.37
114 | GTCAGCACGTGGGGCT | -0.2
115 | GCGTTCACGTGATAGG | 0.36
116 | TGTCTCACGTGAATTG | 0.38
117 | TGTGCCACGTGTGGAC | 0.07
118 | GGGGGCACGTGCTCTT | -0.11
119 | TATCGCACGTGGTGAT | -0.12
120 | TCGGTCACGTGGGCGA | -0.06
121 | TATAGCACGTGTTAGG | -0.17
122 | ATGATCACGTGGCGGG | 0
123 | GGCTGCACGTGAGTAG | 0.2
124 | TGTAGCACGTGGGAGG | -0.11
125 | CGGTACACGTGAGTGT | 0.14

Row | Sequence | relative binding free energy [kcal/mol]
126 | CTTGGCACGTGGAGGT | -0.03
127 | CTGATCACGTGAGGGT | 0.21
128 | CTTTGCACGTGCGGGC | 0.17
129 | CAGTGCACGTGAGAGT | 0.35
130 | TATGTCACGTGTGATG | 0.15
131 | CGAGTCACGTGTGGTT | 0.11
132 | TTAATCACGTGACTGA | 0.43
133 | ATCGTCACGTGAGTGT | 0.06
134 | TTACTCACGTGAATGG | 0.51
135 | GGCTTCACGTGCGGTT | 0.34
136 | TTTTACACGTGGGTAG | -0.08
137 | AAGGGCACGTGGGCAG | -0.35
138 | ATGACCACGTGGGGTG | -0.23
139 | AAATGCACGTGCGGGA | -0.05
140 | CTTGGCACGTGTAAGA | 0.09
141 | TTTTGCACGTGGTTAA | -0.1
142 | GATGGCACGTGATGGA | 0.17
143 | GTCGTCACGTGTGTGT | 0.14
144 | GGGTCCACGTGCGGAG | 0.13
145 | TTTTACACGTGTTCTG | 0.15
146 | TTTCCCACGTGTAGGG | -0.02
